Measured values reported in article PMC4428065.
No constants are given. Whether binding was seen depends on the method and setting. For part of these data: Binding seen in cells or lysates may run through a third protein. Some entries that bind do so weakly or less than the wild type. Sequences can lack the tags named with a protein.

Columns and labels:
[1] = biological target: T1, TAP-DET1 (Arabidopsis thaliana) (UniProt P48732); assay: co-IP; TAP-IP with IgG beads from total protein extract of transgenic Arabidopsis seedlings grown in SD and treated with MG132; GI-HA detected with anti-HA antibody
T1 sequence: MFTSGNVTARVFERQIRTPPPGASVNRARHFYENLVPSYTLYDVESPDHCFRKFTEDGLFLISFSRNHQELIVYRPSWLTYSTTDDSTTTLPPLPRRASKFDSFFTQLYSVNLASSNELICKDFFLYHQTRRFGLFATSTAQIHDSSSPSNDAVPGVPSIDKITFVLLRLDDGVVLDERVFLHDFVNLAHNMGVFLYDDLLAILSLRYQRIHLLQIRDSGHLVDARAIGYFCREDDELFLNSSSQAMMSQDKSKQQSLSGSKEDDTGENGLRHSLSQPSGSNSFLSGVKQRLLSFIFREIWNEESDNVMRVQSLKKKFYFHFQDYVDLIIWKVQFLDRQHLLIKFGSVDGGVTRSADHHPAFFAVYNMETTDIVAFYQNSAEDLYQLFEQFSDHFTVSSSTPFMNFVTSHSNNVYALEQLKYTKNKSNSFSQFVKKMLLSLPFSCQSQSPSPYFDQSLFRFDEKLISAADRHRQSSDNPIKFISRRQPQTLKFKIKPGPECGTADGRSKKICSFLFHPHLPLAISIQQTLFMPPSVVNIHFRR

[2] = biological target: T2, DET1-nYFP (Arabidopsis thaliana) (UniProt P48732); assay: split reporter; BiFC: nEYFP and cEYFP fusion plasmids mixed 1:1 and co-bombarded into onion epidermal layers, incubated on MS solid media with MG132 for 16-24 h at 22°C, confocal microscopy
T2 sequence: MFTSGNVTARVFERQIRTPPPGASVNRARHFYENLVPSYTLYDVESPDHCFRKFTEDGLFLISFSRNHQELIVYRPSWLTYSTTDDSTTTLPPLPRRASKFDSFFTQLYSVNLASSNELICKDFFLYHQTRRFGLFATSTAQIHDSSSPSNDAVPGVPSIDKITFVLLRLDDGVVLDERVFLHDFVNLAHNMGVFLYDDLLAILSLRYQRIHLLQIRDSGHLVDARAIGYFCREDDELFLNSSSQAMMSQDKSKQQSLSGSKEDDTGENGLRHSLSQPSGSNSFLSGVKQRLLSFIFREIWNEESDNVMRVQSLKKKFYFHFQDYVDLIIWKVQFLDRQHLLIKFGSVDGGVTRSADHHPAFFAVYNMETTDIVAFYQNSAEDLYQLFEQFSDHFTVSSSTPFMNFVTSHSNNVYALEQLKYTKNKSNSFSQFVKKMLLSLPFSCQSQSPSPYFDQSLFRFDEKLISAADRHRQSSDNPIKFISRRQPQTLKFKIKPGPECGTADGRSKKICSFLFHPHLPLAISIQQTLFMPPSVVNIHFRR

[3] = biological target: T3, DE-ETIOLATED1 (DET1), full-length, yeast two-hybrid bait (Arabidopsis thaliana) (UniProt P48732); assay: two-hybrid; … GAL4 two-hybrid system 3 (pGBKT7 bait, pGADT7 prey) in S. cerevisiae AH109; growth on media lacking adenine, leucine, histidine and tryptophan; beta-galactosidase activity; full-length DET1 as bait in Figure 4b
T3 sequence: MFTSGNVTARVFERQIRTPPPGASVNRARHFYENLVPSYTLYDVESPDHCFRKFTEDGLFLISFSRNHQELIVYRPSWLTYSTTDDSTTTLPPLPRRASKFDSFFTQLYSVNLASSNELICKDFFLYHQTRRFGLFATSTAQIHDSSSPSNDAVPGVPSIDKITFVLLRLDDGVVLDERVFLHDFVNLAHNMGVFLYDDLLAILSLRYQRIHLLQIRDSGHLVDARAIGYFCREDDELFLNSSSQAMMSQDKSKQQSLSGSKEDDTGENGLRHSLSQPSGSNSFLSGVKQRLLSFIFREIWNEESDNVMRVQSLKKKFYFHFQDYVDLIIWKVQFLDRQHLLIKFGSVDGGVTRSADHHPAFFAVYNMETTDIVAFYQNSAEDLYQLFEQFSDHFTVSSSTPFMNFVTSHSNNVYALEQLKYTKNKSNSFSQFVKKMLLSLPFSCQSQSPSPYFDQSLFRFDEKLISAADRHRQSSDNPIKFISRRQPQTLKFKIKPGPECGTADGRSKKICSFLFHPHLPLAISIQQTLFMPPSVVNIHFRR

B1: GI-HA (protein, UniProt Q9SQI2 1-1173)
chain: MASSSSSERWIDGLQFSSLLWPPPRDPQQHKDQVVAYVEYFGQFTSEQFPDDIAELVRHQYPSTEKRLLDDVLAMFVLHHPEHGHAVILPIISCLIDGSLVYSKEAHPFASFISLVCPSSENDYSEQWALACGEILRILTHYNRPIYKTEQQNGDTERNCLSKATTSGSPTSEPKAGSPTQHERKPLRPLSPWISDILLAAPLGIRSDYFRWCSGVMGKYAAGELKPPTIASRGSGKHPQLMPSTPRWAVANGAGVILSVCDDEVARYETATLTAVAVPALLLPPPTTSLDEHLVAGLPALEPYARLFHRYYAIATPSATQRLLLGLLEAPPSWAPDALDAAVQLVELLRAAEDYASGVRLPRNWMHLHFLRAIGIAMSMRAGVAADAAAALLFRILSQPALLFPPLSQVEGVEIQHAPIGGYSSNYRKQIEVPAAEATIEATAQGIASMLCAHGPEVEWRICTIWEAAYGLIPLNSSAVDLPEIIVATPLQPPILSWNLYIPLLKVLEYLPRGSPSEACLMKIFVATVETILSRTFPPESSRELTRKARSSFTTRSATKNLAMSELRAMVHALFLESCAGVELASRLLFVVLTVCVSHEAQSSGSKRPRSEYASTTENIEANQPVSNNQTANRKSRNVKGQGPVAAFDSYVLAAVCALACEVQLYPMISGGGNFSNSAVAGTITKPVKINGSSKEYGAGIDSAISHTRRILAILEALFSLKPSSVGTPWSYSSSEIVAAAMVAAHISELFRRSKALTHALSGLMRCKWDKEIHKRASSLYNLIDVHSKVVASIVDKAEPLEAYLKNTPVQKDSVTCLNWKQENTCASTTCFDTAVTSASRTEMNPRGNHKYARHSDEGSGRPSEKGIKDFLLDASDLANFLTADRLAGFYCGTQKLLRSVLAEKPELSFSVVSLLWHKLIAAPEIQPTAESTSAQQGWRQVVDALCNVVSATPAKAAAAVVLQAERELQPWIAKDDEEGQKMWKINQRIVKVLVELMRNHDRPESLVILASASDLLLRATDGMLVDGEACTLPQLELLEATARAIQPVLAWGPSGLAVVDGLSNLLKCRLPATIRCLSHPSAHVRALSTSVLRDIMNQSSIPIKVTPKLPTTEKNGMNSPSYRFFNAASIDWKADIQNCLNWEAHSLLSTTMPTQFLDTAARELGCTISLSQ
binding [1]: binds

B2: cYFP-MSI4 (protein, UniProt O22607 1-507)
chain: MESDEAAAVSPQATTPSGGTGASGPKKRGRKPKTKEDSQTPSSQQQSDVKMKESGKKTQQSPSVDEKYSQWKGLVPILYDWLANHNLVWPSLSCRWGPQLEQATYKNRQRLYLSEQTDGSVPNTLVIANCEVVKPRVAAAEHISQFNEEARSPFVKKYKTIIHPGEVNRIRELPQNSKIVATHTDSPDVLIWDVETQPNRHAVLGAANSRPDLILTGHQDNAEFALAMCPTEPFVLSGGKDKSVVLWSIQDHITTIGTDSKSSGSIIKQTGEGTDKNESPTVGPRGVYHGHEDTVEDVAFSPTSAQEFCSVGDDSCLILWDARTGTNPVTKVEKAHDADLHCVDWNPHDDNLILTGSADNTVRLFDRRKLTANGVGSPIYKFEGHKAAVLCVQWSPDKSSVFGSSAEDGLLNIWDYDRVSKKSDRAAKSPAGLFFQHAGHRDKVVDFHWNASDPWTIVSVSDDCETTGGGGTLQIWRMSDLIYRPEEEVVAELEKFKSHVMTCASKP
binding [2]: binds

B3: PHYA, yeast two-hybrid fusion (protein, UniProt P14712 1-1122)
chain: MSGSRPTQSSEGSRRSRHSARIIAQTTVDAKLHADFEESGSSFDYSTSVRVTGPVVENQPPRSDKVTTTYLHHIQKGKLIQPFGCLLALDEKTFKVIAYSENASELLTMASHAVPSVGEHPVLGIGTDIRSLFTAPSASALQKALGFGDVSLLNPILVHCRTSAKPFYAIIHRVTGSIIIDFEPVKPYEVPMTAAGALQSYKLAAKAITRLQSLPSGSMERLCDTMVQEVFELTGYDRVMAYKFHEDDHGEVVSEVTKPGLEPYLGLHYPATDIPQAARFLFMKNKVRMIVDCNAKHARVLQDEKLSFDLTLCGSTLRAPHSCHLQYMANMDSIASLVMAVVVNEEDGEGDAPDATTQPQKRKRLWGLVVCHNTTPRFVPFPLRYACEFLAQVFAIHVNKEVELDNQMVEKNILRTQTLLCDMLMRDAPLGIVSQSPNIMDLVKCDGAALLYKDKIWKLGTTPSEFHLQEIASWLCEYHMDSTGLSTDSLHDAGFPRALSLGDSVCGMAAVRISSKDMIFWFRSHTAGEVRWGGAKHDPDDRDDARRMHPRSSFKAFLEVVKTRSLPWKDYEMDAIHSLQLILRNAFKDSETTDVNTKVIYSKLNDLKIDGIQELEAVTSEMVRLIETATVPILAVDSDGLVNGWNTKIAELTGLSVDEAIGKHFLTLVEDSSVEIVKRMLENALEGTEEQNVQFEIKTHLSRADAGPISLVVNACASRDLHENVVGVCFVAHDLTGQKTVMDKFTRIEGDYKAIIQNPNPLIPPIFGTDEFGWCTEWNPAMSKLTGLKREEVIDKMLLGEVFGTQKSCCRLKNQEAFVNLGIVLNNAVTSQDPEKVSFAFFTRGGKYVECLLCVSKKLDREGVVTGVFCFLQLASHELQQALHVQRLAERTAVKRLKALAYIKRQIRNPLSGIMFTRKMIEGTELGPEQRRILQTSALCQKQLSKILDDSDLESIIEGCLDLEMKEFTLNEVLTASTSQVMMKSNGKSVRITNETGEEVMSDTLYGDSIRLQQVLADFMLMAVNFTPSGGQLTVSASLRKDQLGRSVHLANLEIRLTHTGAGIPEFLLNQMFGTEEDVSEEGLSLMVSRKLVKLMNGDVQYLRQAGKSSFIITAELAAANK
binding [3]: no binding
